According to PubChem BioAssay (NCI):
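Grown in 96-well plates, cells were treated for 48 hours with each compound at five concentrations. Insufficient inhibition: endpoint recorded as highest concentration tested. GI50 is the concentration that inhibits growth by half.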 Some entries of the source have several records that differ or are many. This list holds those alone. The source may hold further records. For part of these data: Records of one sample usually come from different ranges of test concentrations, which the source does not state; some values may only mark the edge of a range. For part of these data: Results that share an entry are repeats in other runs, samples, wells, individuals or studies. What stands in brackets tells the records apart. Letters hold for one entry only.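 Definition used: TGI = concentration required for complete inhibition of growth.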 Where a SMILES comes first, the peptide text is derived from it. The star is where a group is joined. Boc = CC(C)(C)OC(=O)*; OBn = c1ccc(CO*)cc1

Experiments:
Assay in all cases: inhibition of tumour cell growth, NCI panel, 48 h
IGROV1 ovarian = test system: IGROV1 ovarian
SR leukemia = test system: SR leukemia
SNB-75 CNS = test system: SNB-75 CNS
HOP-18 NSCLC = test system: HOP-18 NSCLC
SN12C renal = test system: SN12C renal
CAKI-1 renal = test system: CAKI-1 renal
UO-31 renal = test system: UO-31 renal
HCT-116 colon = test system: HCT-116 colon
786-0 renal = test system: 786-0 renal
SNB-19 CNS = test system: SNB-19 CNS
RPMI-8226 leukemia = test system: RPMI-8226 leukemia
HCT-15 colon = test system: HCT-15 colon
BT-549 breast = test system: BT-549 breast
HL-60(TB) leukemia = test system: HL-60(TB) leukemia
TK-10 renal = test system: TK-10 renal

CCCC(=O)Nc1ncnc2c1ncn2C1OC2COP(=O)(O)OC2C1OC(=O)CCC (stereo not given)
TGI (IGROV1 ovarian): 53.1 µM and > 1 mM

Nc1ccn(CC(CO)CC(c2ccccc2)P(=O)(O)O)c(=O)n1 (stereo not given)
GI50 (SR leukemia): > 100 µM [sample A, 1 test] and 4.6 µM [sample B, 1 test] | GI50 (SNB-75 CNS): 1.73 µM [sample A, 1 test] and > 100 µM [sample B, 1 test]

C/C=C1\C[C@@H]2C(OC)Nc3cc(O)c(OC)cc3C(=O)N2C1 (stereo not given in full)
TGI (HOP-18 NSCLC): 313 nM and < 24.1 nM | TGI (SN12C renal): 360 nM and 6.53 µM | TGI (CAKI-1 renal): 267 nM and > 37.8 µM | TGI (UO-31 renal): 5.78 nM and 78.5 nM | TGI (HCT-116 colon): 473 nM and 5.05 µM | TGI (786-0 renal): 624 nM and 8.92 µM | TGI (SNB-19 CNS): 396 nM and 4.17 µM | TGI (RPMI-8226 leukemia): 512 nM and < 12.9 nM | TGI (HCT-15 colon): 823 nM and 11.1 µM

COc1cc(C(=O)Nc2cc(O)c(C/C=C(\C)CCC=C(C)C)c(O)c2)cc2c1O[C@]1(C)CC[C@@H](O)C(C)(C)[C@H]1C2
GI50 (BT-549 breast): 8.86 nM [1 test] and 216 nM [mean of 2 tests] | TGI (HL-60(TB) leukemia): 1.85 µM and > 100 µM

CC(C)C(NC(=O)CNC(=O)C1CCCN1C(=O)C(NC(=O)OC(C)(C)C)C(C)C)C(=O)NCC(=O)OCc1ccccc1 (stereo not given) (Boc-VPGVG-OBn; configuration not given here)
GI50 (TK-10 renal): > 100 µM [sample A, 1 test] and 200 nM [sample B, 1 test]
